Reference: PMC12040169 (PLOS Biology, 2025)
This is one part of the list.

These compounds were tested on T1, C. trachomatis L2/434/Bu expressing GFP (CTL2-GFP). Conditions: total inclusion area; 28.5 h, 10 µM; inhibitor.
T1 construct: L2/434/Bu GFP intracellular growth in HeLa cells
Set-up: species or system HeLa; C. trachomatis total inclusion area by high-content imaging, normalised to DMSO
How it was run: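 Bulk GFP and resorufin signals were read first. Wells were then fixed, stained with Hoechst and imaged to detect GFP inclusions and host nuclei. MICs followed the previously described calculation.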

SMILES | % of control remaining
Cc1nn(CC(=O)N2CCC(C)CC2)c(=O)c2cc3occc3n12 [CBK283654] | 93.379
COc1ccccc1-c1[nH]nc(O)c1Cc1c(Cl)cccc1Cl [CBK107933] | 88.6569
O=C1CNC(=O)C2(C/C=C/C[C@H]3COCC[C@H]3N1)CCN(Cc1cccc3[nH]ccc13)CC2 [CBK292073] | 83.6802
COc1cc(CN2CCCC3(CCN(C(=O)Cc4c[nH]c5ccccc45)C3)C2)cc(OC)c1OC (stereo not shown) [CBK132027] | 90.7535
COc1cccc(N2CCN(CC(CC(=O)Nc3ccccc3)C(=O)O)CC2)c1 (stereo not shown) [CBK286813] | 115.265
CN1CCN(S(=O)(=O)c2ccc(C(C)(C)C)cc2)CC1 [CBK051237] | 82.3749
CCCCOc1ccc(S(=O)(=O)Nc2ccc(-c3cn4ccccc4n3)cc2)cc1 [CBK264374] | 109.341
N=c1n(CCN2CCCCC2)c2ccccc2n1CC(O)COc1ccccc1 (stereo not shown) [CBK262451C] | 103.353
COc1ccccc1N1CCN(CC(CC(=O)Nc2ccc3c(c2)OCO3)C(=O)O)CC1 (stereo not shown) [CBK286822] | 101.506
COCCN1C(=O)C2(CC(=O)N(CC(=O)N(C)C)C2=O)c2cc(F)ccc21 (stereo not shown) [CBK075428] | 112.791
COc1ccc2[nH]c(=O)c(CN(CCCN3CCOCC3)C(=O)Nc3cccc(Cl)c3)cc2c1 [CBK135402] | 89.6942
Cc1ncoc1C(=O)N1CCC2(C/C=C/C[C@H]3COCC[C@H]3NC(=O)CNC2=O)CC1 [CBK292086] | 119.927
O=C(CN1CCCC1=O)NC(Cc1cccs1)c1nccs1 (stereo not shown) [CBK282177] | 75.5788
COc1ccc(-c2cc(C(=O)NCCc3ccc(N)cc3)cnc2-c2ccc(Cl)cc2)cc1 [CBK037561] | 128.265
CS(=O)(=O)N(CC(=O)NC1CCCCC1)c1cccc2ccccc12 [CBK263770] | 96.176
CCOc1cccc(-c2cncc(NCCO)n2)c1 [CBK066075] | 102.798
CCCCC12CN3CCN(CC(C3)/C1=N\N=C1/C3CN4CCN(C3)CC1(CCCC)C4)C2 [CBK264981] | 98.628
CSCCC(=O)N1CCC2(CCN(Cc3ccccc3)C2)C1 (stereo not shown) [CBK136838] | 79.0059
CCc1ccccc1-c1cccc(C(=O)NCC(O)CN(C)C)c1 (stereo not shown) [CBK306604] | 48.112
O=C(CN1CCC(NC(=O)c2cccs2)CC1)Nc1ccc(F)c(F)c1 [CBK305991] | 77.2014

SMILES | % of control remaining
CCOc1ccc(CC(=O)NC[C@H]2CC[C@H](c3cc(C(N)=O)c4ccccc4n3)CC2)cc1 [CBK285899] | 113.1
CN(C)CC(Oc1ccccc1)C(=O)c1ccccc1 (stereo not shown) [CBK011935C] | 87.2515
O=C(COc1ccccc1)NCC1(c2ccccc2)CCOCC1 [CBK067407] | 56.9608
Cc1ccc2oc(-c3cc(NC(=S)NC(=O)c4ccc([N+](=O)[O-])cc4)ccc3O)nc2c1 [CBK263923] | 110.811
Cc1nn(C)cc1CN(Cc1ccccc1F)CC1CCCO1 (stereo not shown) [CBK283014] | 86.916
CC(=O)OC1CCn2c1nc1ccccc12 (stereo not shown) [CBK113621] | 92.4052
O=[N+]([O-])c1ccc(CN2CCC(Oc3nccnc3OCc3ccc(Cl)c(Cl)c3)CC2)cc1 [CBK083107T] | 60.0813
CCNS(=O)(=O)c1ccc2c(c1)N(Cc1cccnc1C)CC2 [CBK306020] | 35.7142
COc1ccc(-c2c(-c3ccc(O)cc3O)n[nH]c2C)cc1OC [CBK265552] | 92.3464
Cc1cc([N+](=O)[O-])ccc1/N=C\c1ccc(C(=O)O)cc1 [CBK262058] | 97.995
CCn1ncc(Br)c1C(=O)Nc1ccc(Cl)cn1 [CBK265826] | 68.3608
CCOc1ccc(Cl)cc1CN(C)C(=O)NCC(C)CN(C)C (stereo not shown) [CBK307500] | 86.9389
O=C(NCC1(c2ccccc2F)CCCC1)c1cc[nH]c(=O)c1 [CBK281378] | 108.981
COC(=O)[C@H]1CN(C(=O)c2cccnc2)C[C@@H]1c1ccc(F)cc1 [CBK283788] | 99.9924
O=S(=O)(NCCSCc1ccco1)c1ccc(Cl)cc1 [CBK232206] | 111.577
COc1ccc(SCCCCN2CCC3(CC2)OCCc2c3[nH]c3ccccc23)cc1 [CBK113464T] | 0
OC(CSc1ccccc1)CN1CCN(Cc2ccc3c(c2)OCO3)CC1 (stereo not shown) [CBK074761] | 90.6072
O=C(NC(=O)C1CCNCC1)Nc1ccccc1 [CBK034794] | 107.771
CN(C)CC(=O)N1CCc2nc(-c3cccc(F)c3)sc2C1 [CBK281801] | 104.322
CC(C)CC(=O)N1CCC(n2c(=O)oc3ccc(Cl)cc32)CC1 [CBK285477] | 85.2128
